The list shows a part of the results.
T1: UNK ZnF1-6 (called full-length) (human, UniProt Q9C0B0 30-357)
T1 sequence: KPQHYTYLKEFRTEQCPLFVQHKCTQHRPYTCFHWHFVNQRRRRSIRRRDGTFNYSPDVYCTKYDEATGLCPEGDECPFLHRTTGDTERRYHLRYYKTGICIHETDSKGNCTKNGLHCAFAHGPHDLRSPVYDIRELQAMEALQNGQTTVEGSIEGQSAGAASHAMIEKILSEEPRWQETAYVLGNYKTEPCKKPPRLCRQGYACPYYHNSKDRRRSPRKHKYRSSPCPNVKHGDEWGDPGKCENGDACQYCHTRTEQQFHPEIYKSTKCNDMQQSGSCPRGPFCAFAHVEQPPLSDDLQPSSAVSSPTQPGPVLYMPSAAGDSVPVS

B1: chr6:350928:351029:+|3pUTR|ENSG00000112679|unk|total|mutant (ssRNA)
RNA: GGGAGUUCUACAGUCCGACGAUCCCACAGAGUUCCGGCUGGUGCUGCCAAAAAGAAAAGCAACACCGAGUUUAAGUAUCCAGCCGUGAUUUGUAAACUUGUUUUUCAUUUGAAGCUGAAUAUAUACGCCGUCAUGUUUAUGUUCAACAGAGGAUUGAGCAUCA
B2: chr1:93365539:93365640:+|3pUTR|ENSG00000117505|unk|FALSE|unique (ssRNA)
RNA: GGGAGUUCUACAGUCCGACGAUCAGGAGGCAAAAUUGCACCCUGUUGAAAACCACCACCUUAGAUCAUCUAGGUUUUACUUUUAGGAUAAGACACUUGAGGGAAAGGCUGUGAAACUGAACCUCUGUUAGAAGCAACACACAGCAACAGAGGAUUGAGCAUCA
B3: ENSG00000070961:be:win_6101|3pUTR|ENSG00000070961|bound_else_gene|NA|bound_elsewhere_windowed (ssRNA)
RNA: GGGAGUUCUACAGUCCGACGAUCUAAAGAUCUUGGAUCCCAUUAUAUAGUAUGUAUAGCUGAAAUCUGUAAUUCAAUCACUUUUUCUCUUUUAUCCUCUAACCAAAAAAUUGUUUAAUUUUGCAUCCCAAAUGUUUUUAAUCUCAACAGAGGAUUGAGCAUCA
B4: chr14:55188946:55189174:-|CDS|ENSG00000126787|unk|total|mutant (ssRNA)
RNA: GGGAGUUCUACAGUCCGACGAUCAUUGCUCACCGGAAAUCACUGUCUCAGAAAGAAAACCGACAUAAGGAAUACGAACGAAACCGACACUUUGGUUUGAAAGAUGUAAACAUUCCAACCUUGGAAGGCCGAAUUCUUGUUGAACAACAGAGGAUUGAGCAUCA
B5: chr4:48579112:48579224:-|CDS|ENSG00000075539|unk|total|mutant (ssRNA)
RNA: GGGAGUUCUACAGUCCGACGAUCCUCUAUUGCCCCCGCUCGACCGAUUUACAAACUUCCGCAGAAUGGAACUCUUCUCCUAUCCGCCACCAGUUUGAUGUGAUCCGUCCAUCACAUAUAUGGAUAUUUGCACAUGUGACCCAACAACAGAGGAUUGAGCAUCA
B6: chr10:30461265:30461366:+|3pUTR|ENSG00000107968|unk|FALSE|unique (ssRNA)
RNA: GGGAGUUCUACAGUCCGACGAUCUCUUUGAGCCUUUAUUGGUAAAUUCUGGUAUACAUUGAAUUCAUUAUAAUUUGGGUGACUAGAACAACUUGAAGAUUGUAGCAAUAAGCUGGACUAGUGUCCUAAAAAUGGCUAACUGAUCAACAGAGGAUUGAGCAUCA
B7: chrX:153907366:153907962:-|three_prime_utr|ENSG00000089820|control|control|control (ssRNA)
RNA: GGGAGUUCUACAGUCCGACGAUCAGGCUUCUCCCGGGGCCCUGGGGCCCCAGCCUCACCCUCAGCUUCCCACCCCCAGGGCCUAGACACGACCCCCAAGCCACACUGAGGUGCCGCUGCUGGAGAUGCGUGCCCCCGGCGGCUCAACAGAGGAUUGAGCAUCA
B8: ENSG00000136451:be:win_2551|3pUTR|ENSG00000136451|bound_else_gene|NA|bound_elsewhere_windowed (ssRNA)
RNA: GGGAGUUCUACAGUCCGACGAUCUCACUAGAGUUUAUGUCUUAUAUUAAAUUGUAUACAGUUUUUAUUCUAACCACUAACUAGGUAGUGUAUGCCCCUUCAGAACAUGCAGAGUGUAUCUUUUUUUAAAUUUCUCCUUCCGUUCAACAGAGGAUUGAGCAUCA
B9: chr16:22286016:22286117:+|3pUTR|ENSG00000103319|msi1|FALSE|unique (ssRNA)
RNA: GGGAGUUCUACAGUCCGACGAUCCUGAGCCCAGCCAAGACUUCAGUGUUGACUGCUUUGGAGGCACAAACCCAUGCAAGCGUUAGUUCCAAAGUUCAGUGUGUACCCUUAAAUGAACAAUGAAGCAGGUAAAAUUACCCUUGACAACAGAGGAUUGAGCAUCA
B10: chr7:33006061:33006162:+|3pUTR|ENSG00000122642|msi1_unk|total|mutant (ssRNA)
RNA: GGGAGUUCUACAGUCCGACGAUCGGCAUCUCAGACCACAAACCGAGAAUUUGAUUCCUCAUUUGCCACAUAAGUCAUCUGCUCCGCUUUUCCUUUCCUUUUUUUUUUUUUUUUUUUUUCUGGAGGCAGAGUCUCCCUUUGUCGCAACAGAGGAUUGAGCAUCA
B11: chr8:72021249:72022905:-|three_prime_utr|ENSG00000104321|control|control|control (ssRNA)
RNA: GGGAGUUCUACAGUCCGACGAUCGCAGAUAUGUUCAAAUUGGACUGGACUUUGAUGAGAUAUAAUCUCAUUAUUUGAAUGGGUAGAAAAUGAAUUUGCUAGAACACACAUUUUUAAUGAAAAGAAGUAAUAAAUGUAACUAUUCAACAGAGGAUUGAGCAUCA
B12: chr11:61866713:61866887:+|3pUTR|ENSG00000134824|msi1|total|mutant (ssRNA)
RNA: GGGAGUUCUACAGUCCGACGAUCCUCUCCUGUCUGAACCUGCCCUUACUGUGUUUAACCUGUUGCUCCAGGAUGCAUUCUGACCGGAGGGGGCGGCAGGGCUGGGCCUUGUGACAAUCUGCCUUUCACCACAUGGCCUUGCCUCAACAGAGGAUUGAGCAUCA
B13: ENSG00000070961:be:win_301|CDS|ENSG00000070961|bound_else_gene|NA|bound_elsewhere_windowed (ssRNA)
RNA: GGGAGUUCUACAGUCCGACGAUCUUAGUAUGGGAAGCAUUACAAGAUGUCACUUUAAUUAUAUUAGAAAUUGCAGCCAUAGUAUCAUUGGGCCUUUCUUUUUAUCAGCCUCCAGAAGGGGAUAAUGCACUUUGUGGAGAAGUUCAACAGAGGAUUGAGCAUCA
B14: chr7:123692404:123692516:-|CDS|ENSG00000106299|unk|total|mutant (ssRNA)
RNA: GGGAGUUCUACAGUCCGACGAUCCCUGCCUUCUGAUGGGGACCAUCAGGUUCCAACUACUGCAGGAAACAAAGCAGCUCUUUCCGAUCAAAUCCGAGAGGGUGCUCAGCUAAAAAAAGUGGAGCAGAACAGUCGGCCAGUGUCCAACAGAGGAUUGAGCAUCA

molecular target: T1, UNK ZnF1-6 (called full-length); assay: nsRBNS (natural sequence RNA bind-n-seq); RBNS binding buffer (assumed for nsRBNS): 25 mM Tris pH 7.5, 150 mM KCl, 3 mM MgCl2, 0.01% Triton X-100, 500 ug/ml BSA, 20 U/ml SUPERase-In, 4 C; UNK is unkempt and MSI1 is Musashi-1; names of the RNAs are library labels; protein concentration not given here; high values mean tight binding

Binder | binding signal [enrichment R]
B1 | 0.345
B2 | 5.47
B3 | 39
B4 | 0.207
B5 | 0.64
B6 | 0.352
B7 | 0.903
B8 | 11.6
B9 | 0.467
B10 | 2.85
B11 | 3.2
B12 | 0.758
B13 | 2.4
B14 | 0.493

Reference: article PMC12136788
